According to the antibiotic and cytotoxicity screens of Wong et al. (2023):
The list shows a part of the results.

Assays:
[1] = test system: HSkMC (human skeletal muscle cells); test: cytotoxicity call (relative viability < 0.9); conditions: 10 µM
[2] = test system: S. aureus RN4220; test: growth inhibition call (relative growth <= 0.2); conditions: 50 µM

SMILES | cytotoxicity call [1] | growth inhibition call [2]
C=C[C@](C)(O)CCC[C@H](C)CCC[C@H](C)CCCC(C)C | inactive | inactive
COCCNC(=O)C[C@H]1CC[C@@H](NS(=O)(=O)c2ccc(C)cc2)[C@H](CO)O1 | inactive | inactive
C[C@@H]1CCCCO[C@@H](CN(C)CC2CC2)[C@H](C)CN([C@H](C)CO)C(=O)c2cc(NC(=O)Nc3cccc4ccccc34)ccc2O1 | inactive | inactive
C[C@@H]1CN([C@H](C)CO)C(=O)c2cc(NC(=O)Nc3ccc(C(F)(F)F)cc3)ccc2O[C@@H]1CN(C)Cc1ccc(C(=O)O)cc1 | inactive | inactive
C[C@H](CO)N1C[C@H](C)[C@H](CN(C)C(=O)c2ccncc2)Oc2cc(C#C[C@@H](C)O)ccc2S1(=O)=O | inactive | inactive
C[C@@H]1CN([C@@H](C)CO)C(=O)c2cc(NC(=O)c3ccccc3)ccc2O[C@@H](C)CCCCO[C@@H]1CN(C)CC1CCCCC1 | inactive | inactive
COCCOC(=O)N1C(=O)[C@@]2(c3ccccc31)[C@H](C(=O)N1CCCCCCC1)[C@H]1C(=O)O[C@H](c3ccccc3)[C@H](c3ccccc3)N1[C@@H]2c1ccccc1OCCO | inactive | inactive
O=C1N[C@@H]2[C@@H](O)[C@@H](O)[C@H](O)[C@@H](CO)N2C1=O | inactive | inactive
COc1ccc(S(=O)(=O)N(C)C[C@@H]2Oc3ncc(-c4cccc(OC)c4)cc3C(=O)N([C@H](C)CO)C[C@@H]2C)cc1 | inactive | inactive
NC(=S)CS(=O)(=O)c1ccccn1 | inactive | inactive
Cl.N=C(NN=Cc1ccc(Cl)cc1)NN=Cc1ccc(Cl)cc1 | active | inactive
Cc1ccc(S(=O)(=O)N(C)C[C@H]2Oc3ccc(NC(=O)c4ccncc4)cc3C(=O)N([C@H](C)CO)C[C@@H]2C)cc1 | inactive | inactive
COc1ccc(NC(=O)N2C[C@@H](O)COC[C@H]3O[C@H](CC(=O)NC4Cc5ccccc5C4)CC[C@@H]32)cc1 | inactive | inactive
C[C@H]1CCCCO[C@H](CN(C)C(=O)c2ccccc2)[C@@H](C)CN([C@@H](C)CO)C(=O)c2cc(NC(=O)NC3CCCCC3)ccc2O1 | inactive | inactive
COc1cc2c(NC3CCN(C)CC3)nc(N3CCCN(C)CC3)nc2cc1OCCOCCN(C)C | inactive | inactive
C[C@@H]1CCCCO[C@@H](CN(C)C(=O)c2ccncc2)[C@H](C)CN([C@@H](C)CO)C(=O)c2cc(NS(=O)(=O)c3ccc(Cl)cc3)ccc2O1 | inactive | inactive
COc1ccc(CN(C)C[C@H]2Oc3c(NC(=O)Nc4ccc(C(F)(F)F)cc4)cccc3C(=O)N([C@H](C)CO)C[C@@H]2C)cc1 | active | inactive
O=C1/C(=C/c2cn(-c3ccccc3)nc2-c2ccc(OCc3ccc(Cl)cc3)cc2)SC(=S)N1CCS(=O)(=O)O | inactive | inactive
O=C(N[C@H](c1ccc(Cl)cc1)c1ccccn1)C1CCN(CCOc2ccc(Cl)cc2Cl)CC1 | inactive | active
C[C@H](CO)N1C[C@H](C)[C@H](CN(C)Cc2ccc(C(=O)Nc3ccccc3N)cc2)Oc2ccc(NC(=O)Nc3ccc(F)cc3)cc2C1=O | inactive | inactive
CN(C)CC#Cc1ccc([C@@H]2[C@H]3CN(C(=O)c4cccnc4)CC(=O)N3[C@H]2CO)cc1 | inactive | inactive
O=C1N(Cc2ccccc2)Cc2ccccc2[C@H]2OC(c3ccc(OCCCO)cc3)=N[C@@]12Cc1ccccc1 | inactive | inactive
COc1cc2c(cc1OC)Cc1cc(OC)c(OC)cc1Cc1cc(OC)c(OC)cc1C2 | inactive | inactive
Nc1nc(/C(=N/O)C(=O)N[C@@H]2C(=O)N3C(C(=O)O)=C(/C=C4\CCN([C@@H]5CCNC5)C4=O)CS[C@H]23)ns1 | inactive | inactive
C[C@@H]1CN([C@@H](C)CO)C(=O)Cc2cc(NC(=O)C3CC3)ccc2O[C@H]1CN(C)C(=O)NC1CCCCC1 | inactive | inactive

SMILES | cytotoxicity call [1] | growth inhibition call [2]
Cc1noc(C)c1NC(=O)Nc1ccc2c(c1)C(=O)N([C@@H](C)CO)C[C@@H](C)[C@@H](CN(C)Cc1ccc3c(c1)OCO3)OCCCC[C@H](C)O2 | inactive | inactive
COc1cccc(S(=O)(=O)Nc2ccc3c(c2)[C@@H]2C[C@@H](CC(=O)NCc4ccccc4F)O[C@@H](CO)[C@@H]2O3)c1 | inactive | inactive
C[C@@H]1CCCCO[C@H](CN(C)CC2CC2)[C@H](C)CN([C@@H](C)CO)C(=O)c2cc(NC(=O)Nc3ccc(F)cc3)ccc2O1 | inactive | inactive
Cc1ccc(S(=O)(=O)N(C)C[C@H]2Oc3ccc(NC(=O)Nc4cccc5ccccc45)cc3CC(=O)N([C@H](C)CO)C[C@H]2C)cc1 | inactive | inactive
Cc1ccc(S(=O)(=O)N(C)C[C@@H]2Oc3ccc(NC(=O)Cn4cnnn4)cc3C(=O)N([C@@H](C)CO)C[C@@H]2C)cc1 | inactive | inactive
C[C@@H]1CCCCO[C@@H](CN(C)S(=O)(=O)c2ccccc2)[C@H](C)CN([C@H](C)CO)C(=O)c2cc(NC(=O)Nc3ccc(C(F)(F)F)cc3)ccc2O1 | inactive | inactive
C[C@H]1CN([C@@H](C)CO)C(=O)c2cccc(NC(=O)c3nc4ccccc4s3)c2O[C@@H]1CN(C)CC1CCCCC1 | inactive | inactive
CC(=O)c1ccc(S(=O)(=O)N2[C@@H]3CC[C@@H](C3)[C@H]2c2nc3cccc(OCc4ccc(F)cc4)c3[nH]2)cc1 | inactive | inactive
COc1ccc(S(=O)(=O)Nc2cccc3c2O[C@@H](CN(C)Cc2ccc(Cl)c(Cl)c2)[C@H](C)CN([C@@H](C)CO)C3=O)cc1 | inactive | inactive
N#Cc1ccc(CN)cc1 | inactive | inactive
Cc1ccc(S(=O)(=O)N(C)C[C@H]2OCCCC[C@@H](C)Oc3ccc(NC(=O)NC4CCCCC4)cc3C(=O)N([C@@H](C)CO)C[C@@H]2C)cc1 | inactive | inactive
O=C(C=Cc1ccc(O)c(O)c1)OC1CC(O)(C(=O)O)CC(O)C1O (stereo not given) | inactive | inactive
COc1cc(C(=O)OCCCN2CCCN(CCOC(=O)c3cc(OC)c(OC)c(OC)c3)CC2)cc(OC)c1OC | inactive | inactive
C[C@@H]1CN([C@H](C)CO)C(=O)Cc2cc(NC(=O)Nc3cccc4ccccc34)ccc2O[C@H]1CN(C)C(=O)NC1CCCCC1 | inactive | inactive
C[C@H]1CN([C@@H](C)CO)C(=O)Cc2cc(NS(=O)(=O)c3cccs3)ccc2O[C@H]1CN(C)Cc1ccc(-c2ccccc2)cc1 | inactive | inactive
C[C@@H]1CN([C@H](C)CO)C(=O)Cc2cc(NS(=O)(=O)c3cccs3)ccc2O[C@@H]1CN(C)S(=O)(=O)c1ccc(F)cc1 | inactive | inactive
C[C@@H]1CN([C@@H](C)CO)C(=O)c2cc(NC(=O)Nc3ccccc3)ccc2O[C@@H](C)CCCCO[C@H]1CN(C)Cc1ccncc1 | inactive | inactive
C[C@@H]1CN([C@@H](C)CO)C(=O)c2cc(NC(=O)C3CC3)ccc2O[C@H]1CN(C)Cc1ccc(Oc2ccccc2)cc1 | inactive | inactive
C[C@H](O)C#Cc1ccc2c(c1)O[C@H](CN(C)C)[C@@H](C)CN([C@@H](C)CO)S2(=O)=O | inactive | inactive
CC(C)CC#Cc1ccc2c(c1)O[C@@H](CN(C)CC1CCOCC1)[C@@H](C)CN([C@H](C)CO)S2(=O)=O | inactive | inactive
Cc1noc(C)c1NC(=O)N(C)C[C@@H]1Oc2ccc(NS(=O)(=O)c3ccccc3)cc2CC(=O)N([C@H](C)CO)C[C@@H]1C | inactive | inactive
C[C@@H]1CCCCO[C@@H](CN(C)S(=O)(=O)c2ccc(Cl)cc2)[C@@H](C)CN([C@H](C)CO)C(=O)c2cc(NS(=O)(=O)c3ccc(Cl)cc3)ccc2O1 | inactive | inactive
COCC(=O)Nc1ccc2c(c1)OC[C@@H](C)N(Cc1ccccc1F)C[C@H](C)[C@H](OC)CN(C)C2=O | inactive | inactive
C[C@@H]1CCCCO[C@@H](CN(C)C(=O)Cc2ccccc2)[C@@H](C)CN([C@@H](C)CO)C(=O)c2cc(NC(=O)Nc3ccc(C(F)(F)F)cc3)ccc2O1 | inactive | inactive
O=C(CCCl)NCCc1ccccc1 | inactive | inactive
